Target: T1, PHGDH (Homo sapiens, UniProt O43175)
T1 sequence (O43175 1-533): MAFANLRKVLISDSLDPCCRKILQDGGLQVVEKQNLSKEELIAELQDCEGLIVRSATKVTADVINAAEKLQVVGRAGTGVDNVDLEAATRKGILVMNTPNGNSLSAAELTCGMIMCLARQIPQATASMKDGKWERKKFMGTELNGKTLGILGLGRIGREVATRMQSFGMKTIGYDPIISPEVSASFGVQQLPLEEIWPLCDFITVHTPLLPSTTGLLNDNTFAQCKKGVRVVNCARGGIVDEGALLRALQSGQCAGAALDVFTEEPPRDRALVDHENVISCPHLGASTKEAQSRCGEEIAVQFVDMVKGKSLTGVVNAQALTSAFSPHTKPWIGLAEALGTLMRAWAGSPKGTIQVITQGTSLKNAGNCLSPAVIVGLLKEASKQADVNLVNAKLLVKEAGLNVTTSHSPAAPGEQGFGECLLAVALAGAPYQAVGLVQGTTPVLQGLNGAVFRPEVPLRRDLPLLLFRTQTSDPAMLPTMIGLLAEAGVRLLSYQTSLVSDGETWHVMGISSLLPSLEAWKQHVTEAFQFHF
Assay type: biochemical
Settings: substrates of PHGDH, optimized conditions; read-out: Experimental Km

`NC(=O)c1ccc[n+]([C@@H]2O[C@H](COP(=O)([O-])OP(=O)(O)OC[C@H]3O[C@@H](n4cnc5c(N)ncnc54)[C@H](O)[C@@H]3O)[C@@H](O)[C@H]2O)c1` [NAD^+] gave a Km of 30.4 ± 4.3 µM.

Reference: article PMC7168936 (Pharmaceuticals, 2020)
